Sequences with one replicate were seen in a single cluster, so their values are uncertain.
Tested on: ATP
Experiment: switch fluorescence ratio, 500 uM ATP over buffer (Cy3 cluster intensity, sum of 5 cycles each) (fold (ratio)); higher = stronger signal-on switching upon ATP binding; sequences stand for … in TCGTCGGCAGCGTCAGATGTGTATAAGAGACAGTTTTTTTTTTTTTTTTTTTTTTTTT…TC
Conditions: aptamer strand: ATP DNA aptamer (quencher-CACCTGGGGGAGTATTGCGGAGGAAGG + anchor), 100 nM annealed; ATP concentration: 500 uM; one replicate
Procedure, shortened: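 Cy3-labelled switching-strand clusters on a modified Illumina MiSeq flow-cell were annealed to 100 nM quencher-labelled ATP aptamer and imaged first in selection buffer, then after 15 min with 500 uM ATP at 22 °C. NaOH stripping and re-annealing separated each of five buffer/ATP cycles, and clusters outside 100-1000 RFU were excluded. The fluorescence ratio sums target-cycle Cy3 intensity over buffer-cycle Cy3 intensity per cluster and averages it per switch-domain sequence.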
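Note: ATP exposure 15 min at 22 °C before imaging.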

| Sequence | switch fluorescence ratio |
| --- | --- |
| TGAATTTCAG | 0.999 |
| CTCTATCGAA | 0.993 |
| ATTCCCTGAA | 1.05 |
| ATTCCCAGCC | 1.06 |
| CTACCTCTGA | 1.06 |
| ACAAGCTCTA | 1.03 |
| CCGGCAGAG | 0.976 |
| TTAAAGCAAG | 1.02 |
| CAATAAGACC | 1.06 |
| ATTGGCGTGT | 1.02 |
| TCGAAGCATG | 3.09 |
| GTATTTTTGT | 1.03 |
| AAGAAATCCT | 1.32 |
| ATCATGAGTT | 0.997 |
| CAGTTGACGT | 1.03 |
| TGTGGTACCG | 0.971 |
| GTGTTTATTG | 0.956 |
| TTCTACGTTT | 1.08 |
| GTCAAAGT | 0.995 |
| TCGTATAGTA | 1.02 |
| CCCTTGGCGG | 1.02 |
| GTCACCACCC | 1.1 |
| CGTCCCGCGT | 1.29 |

| Sequence | switch fluorescence ratio |
| --- | --- |
| CGCTCTTCTC | 1.07 |
| TATTGATGGC | 0.98 |
| AGGCGTTCAG | 0.996 |
| CTGGGTCGCT | 1.01 |
| TTGTGACCAT | 1.07 |
| CCTGGCCAAG | 1.06 |
| CTGGATTTT | 1.03 |
| GCAGTTAGTA | 0.968 |
| AACCCAGATG | 2.55 |
| TGCGGACCGG | 0.957 |
| CACAGTAGCC | 1.05 |
| GGCTAACTTA | 1.04 |
| GCTTTTGAGT | 0.991 |
| GGGACCCCAG | 1.09 |
| GGGAAACCGT | 0.982 |
| TGCCCTATGT | 1.01 |
| TGGTGTTGGT | 0.968 |
| GTCCAGATAA | 1.04 |
| GCGGAGTGA | 1.07 |
| AAAAATAGTC | 1.04 |
| TCTGGAACAA | 1.61 |
| GGTCACTAGC | 1.02 |
| CCGTTGCGCT | 1.21 |

| Sequence | switch fluorescence ratio |
| --- | --- |
| TTAGAAACTC | 1.03 |
| GTCCGGTGCC | 1.03 |
| TAAGACGTTG | 1.01 |
| ATGTACTTTT | 1.06 |
| ACATGAAATT | 1.02 |
| TTTGGTCAG | 0.967 |
| GTGACAGCAA | 1.44 |
| CATGATGATT | 1 |
| CCTGTGTATT | 0.954 |
| ATTTTGACA | 0.989 |
| ACAAACTAAT | 1.08 |
| CACAGGGGCG | 0.965 |
| AGTCTTGGCG | 1.02 |
| CTGTTAGGCA | 1.01 |
| AGGATGTGTT | 0.972 |
| TCATAGTCTG | 1.06 |
| TTCTGTAGC | 1.71 |
| TGTTGGGCGA | 0.995 |
| TCAACTTACA | 1.21 |
| GGTATTATGA | 1.02 |
| TGACAGGGGT | 1.03 |
| CGCTTCCTAC | 2.58 |
| AATAGGAGAC | 1.02 |

| Sequence | switch fluorescence ratio |
| --- | --- |
| GATGGTCGTA | 1 |
| AAGTAATATG | 1.01 |
| TAACCAGACG | 1.1 |
| GTTGCTGGTT | 0.957 |
| GATGGATCT | 1.03 |
| CGGCCAGGTC | 1.08 |
| CGGGTGGTAC | 1.03 |
| ATCGTGGCTT | 0.992 |
| CTTGACGAAC | 1.37 |
| ATGCTAGGGG | 1.01 |
| CGTTAAGGCG | 1.03 |
| AAGAATCGCT | 0.953 |
| CATAATCTGT | 1.03 |
| AGAGCTGATA | 1.03 |
| TTTATTCCA | 1.02 |
| TAAAGAAGTA | 1.01 |
| TGCCATTTAC | 1.17 |
| TATCAGTGGG | 1.01 |
| ACCTGCACAG | 1.23 |
| GCGCCTGTTG | 1 |
| GTTGTGAGTG | 0.978 |
| TTGATGGTCT | 1.1 |
| TTCGTGGAA | 1.05 |

| Sequence | switch fluorescence ratio |
| --- | --- |
| AGCATCTGTA | 1.03 |
| TCGGCGCTCT | 1.06 |
| ACGACAGTAC | 1.81 |
| AAGTAGGCAA | 1.06 |
| CTTGATATG | 0.993 |
| GACGGTATTG | 0.977 |
| GTTACCGGCC | 1.37 |
| AGGGCCGTCG | 0.999 |
| TCAATATACA | 1.06 |
| AACAGGCCGG | 1.05 |
| AGCCAGCGTC | 0.981 |
| TAGCAAGGGC | 1.26 |
| GCCGCTGAGG | 1.02 |
| ACGTTATATA | 1.22 |
| GGCACGGGTG | 1.24 |
| GCTGATACTG | 1.06 |
| TTGAAAAGGC | 1 |
| CCCTACACGA | 1.26 |
| GACGGGGAT | 1.07 |
| GACGGATGGC | 0.948 |
| GGCCGAGTGA | 1.06 |
| GAGTATAAAC | 1.01 |
| CTTGGGAATG | 0.975 |

| Sequence | switch fluorescence ratio |
| --- | --- |
| GGGGTTACCG | 0.988 |
| GCCCAACGTT | 0.983 |
| TTCCCGACCT | 1.24 |
| ATCTCCCCTC | 1.16 |
| CTTCGAGGGG | 1 |
| CGGCCTGGT | 0.993 |
| ATTAAAACAG | 1.04 |
| TACAGTGGGC | 0.927 |
| CAGACATTAG | 0.984 |
| CCTAGGATCG | 1.02 |
| TATCACGAAT | 1.01 |
| AGTATGGCGT | 0.977 |
| ATATGTCTCT | 0.977 |
| CCCCGTTGGG | 0.946 |
| AGTGTGCATA | 1.02 |
| GCGGCTTGTC | 1.01 |
| GCCTCCCAGG | 2.76 |
| GAATTTGTGT | 0.969 |
| ACACTGGGGG | 0.993 |
| CAGTTTTGAA | 0.998 |
| TAAGGTAACC | 1.02 |
| AGCGGGCTAG | 1.03 |
| AGTGCTGGTG | 0.998 |

| Sequence | switch fluorescence ratio |
| --- | --- |
| TGGAAAAGCC | 0.992 |
| TTTAACGCG | 1.01 |
| GCTTCTGGTG | 1.05 |
| ATTAGAAAAC | 0.982 |
| GACAAAGGCC | 1.05 |
| AGTCTGGGTC | 1.01 |
| GCTAGCATAT | 1.04 |
| CGTGATACAC | 1.27 |
| GGGCATATGA | 1.04 |
| AGCAAGTTAA | 1.04 |
| CTTGGCTGGC | 0.925 |
| AACTCAACCT | 1.76 |
| TGAGAGGTAG | 0.955 |
| GCCGCAGCTT | 1.28 |
| TCCTATGTTC | 1.08 |
| AGGCGCTCAC | 1.13 |
| CAGCTCCTTT | 0.989 |
| GCATTACACC | 2.39 |
| GCCCATGGGG | 1.12 |

From the supplement of paper PMC10126150
